# Reference: PubChem BioAssay AID485294 (National Center for Advancing Translational Sciences (NCATS), 2010)
# Out of some 370,000 compounds screened, about 150 (0.041%) were called active. The inconclusive results got no clear call from the source; some entries with a clear call stand among them for comparison. Calls follow the shape of the dose curve; as a rule, active = well fitted inhibition curve with a large enough effect; inconclusive = small, poorly fitted or top-dose-only effect; inactive = flat fitted curve, though single readings scatter. No potency is given beside an inconclusive call; the fits are too rough.
# Molecular target: Beta-lactamase (Escherichia coli (strain K12)) (UniProt P00811)
# Chain of UniProt P00811 (P00811 whole entry, looked up): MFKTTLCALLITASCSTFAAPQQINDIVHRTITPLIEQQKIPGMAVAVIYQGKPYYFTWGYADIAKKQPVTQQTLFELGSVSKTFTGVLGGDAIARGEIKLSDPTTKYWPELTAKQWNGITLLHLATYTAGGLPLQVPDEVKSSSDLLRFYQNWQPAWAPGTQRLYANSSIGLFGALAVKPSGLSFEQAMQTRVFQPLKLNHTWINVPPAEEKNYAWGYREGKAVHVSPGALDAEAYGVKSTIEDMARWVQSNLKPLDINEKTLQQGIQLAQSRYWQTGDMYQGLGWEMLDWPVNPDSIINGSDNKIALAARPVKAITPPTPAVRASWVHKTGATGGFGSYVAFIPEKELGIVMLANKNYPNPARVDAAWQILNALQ
# Experiment: qHTS Inhibitors of AmpC Beta-Lactamase (assay with detergent); also: nearly all actives have a fitted effect of over 25% in size;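 as to activity change, negative = inhibition: 0% = no-compound wells and -100% = no-enzyme wells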
# Details: AmpC hydrolysis of nitrocefin, absorbance 480 nm, 0.01% Triton; activity change, negative = inhibition: at 114 µM (top of the series)
# In short: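 AmpC (5.3 nM in the dispensed reagent) in 20 mM phosphate pH 7.0 with 0.01% (detergent screen) or 0.0001% Triton X-100 was preincubated with compounds for 15 min at room temperature. Nitrocefin was then added from an 800 uM solution, and hydrolysis was followed at 480 nm.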
# Potency is read from the fitted curve at half-maximal effect; tags tell the direction and shape of the fitted curve.
Compound,Potency,"activity change, negative = inhibition"
COc1ccc(CC(=O)OCC(=O)Nc2ccc3[nH]c(=O)[nH]c3c2)cc1,"inconclusive [inhibitor, partial curve, poor fit]",–
CCOc1ccc(NC(=O)CN(C)C(=O)c2ccc3nc(CC)c(CC)nc3c2)cc1OCC,"inconclusive [inhibitor, full curve, poor fit]",–
CCN1C(=O)[C@H]2[C@@H](c3ccc(-c4ccc(Cl)c(Cl)c4)c(OC)c3)N[C@@](C)(C(=O)OC)[C@H]2C1=O,"inconclusive [inhibitor, full curve]",–
CCn1nnnc1SCC(=O)N1c2ccccc2Sc2ccccc21,"inconclusive [inhibitor, partial curve, poor fit]",–
COc1ccc(CC(=O)NC(=S)NNC(=O)COc2c(C)cccc2C)cc1,"inconclusive [inhibitor, partial curve, poor fit]",–
Cc1ccc(C(=O)c2cc3ccccc3o2)cc1,–,inactive: -8.14%
CC1=C(C(=O)NCCc2ccc(C)cc2)C2(CCC(C)CC2)OC1=O (stereo not drawn),"inconclusive [inhibitor, full curve, poor fit]",–
Cc1ccc(-c2cn3c(n2)sc2cc(C(=O)NCCCN4CCCCC4)ccc23)cc1,–,inactive: 21.5%
CCOC(=O)[C@H]1[C@H]2COc3ccc(Br)cc3[C@@H]2N2C(=O)CN(Cc3ccco3)C(=O)[C@@]12C,–,inactive: 5.32%
COc1ccc(OCC2c3cc(OC)c(OC)cc3CCN2C(=O)c2ccc(F)cc2)cc1 (stereo not drawn),–,inactive: 8.57%
COc1cc(SC)ccc1C(=O)NCCOc1ccc(Cl)cc1,"inconclusive [inhibitor, full curve]",–
CCN(C(=O)COC(=O)c1ccccc1NCCO)C1CCS(=O)(=O)C1 (stereo not drawn),"inconclusive [inhibitor, partial curve, poor fit]",–
O=C(COC(=O)c1cc(S(=O)(=O)N2CCOCC2)ccc1O)Nc1cc(S(=O)(=O)N2CCCC2)ccc1Cl,"inconclusive [inhibitor, partial curve, poor fit]",–
C=CCOc1ccccc1CN1CCCCCC1,"inconclusive [inhibitor, partial curve, poor fit]",–
O=C(Cc1ccc(F)cc1)NCC1CCCO1 (stereo not drawn),–,inactive: 1.84%
Cc1c(NC(=O)COC(=O)Cn2cc(C(F)(F)F)ccc2=O)cccc1[N+](=O)[O-],"inconclusive [inhibitor, full curve, poor fit]",–
COc1ccc(C2=NO[C@@H]3C(=O)N(c4ccc(C)cc4C)C(=O)[C@H]23)cc1OC,"inconclusive [inhibitor, partial curve, poor fit]",–
COc1ccccc1NC(=O)N(c1c(N)n(Cc2ccccc2)c(=O)[nH]c1=O)C1CCCC1,"inconclusive [inhibitor, full curve, poor fit]",–
COC(=O)c1ccc(NC(=O)COc2coc(CN3CCc4ccccc43)cc2=O)cc1,"inconclusive [inhibitor, full curve, poor fit]",–
Cc1ccc(NC(=O)c2ccc(Cn3cc(Cl)cn3)o2)c(C)c1,"inconclusive [inhibitor, full curve]",–
Cc1c(/C=C/C(=O)c2ccc(O)cc2)cnn1C,"inconclusive [inhibitor, full curve, poor fit]",–

Compound,Potency,"activity change, negative = inhibition"
CCC1S/C(=N/N=C/c2ccco2)N(c2ccc(F)cc2)C1=O (stereo not drawn),"inconclusive [inhibitor, partial curve, poor fit]",–
CC1CC(=O)c2cnc(N)nc2C1 (stereo not drawn),"inconclusive [inhibitor, full curve, poor fit]",–
O=C(CN(C(=O)CCC(=O)Nc1ccccn1)c1ccc(F)cc1)NCc1ccco1,"inconclusive [inhibitor, single point]",–
CCOC(=O)C1CCCN(C(=O)c2cn(CC)c3ccc(S(=O)(=O)N(C)C)cc3c2=O)C1 (stereo not drawn),"inconclusive [inhibitor, partial curve, poor fit]",–
O=C(ONC1=NCCCCC1)c1ccc(Cl)cc1,"inconclusive [inhibitor, single point]",–
Cc1ccc(Cn2c(=O)n(-c3ccccc3)c(=O)c3ccc(C(=O)NCc4ccco4)cc32)cc1,"inconclusive [inhibitor, partial curve]",–
COc1ccc(NC(=O)c2ccccc2[N+](=O)[O-])cc1,"inconclusive [inhibitor, partial curve, poor fit]",–
COc1ccc(Cl)cc1NC(=O)c1ccco1,–,inactive: -0.281%
CN(Cc1ccccc1)c1nc2c(c(=O)[nH]c(=O)n2C)n1C,"inconclusive [inhibitor, full curve]",–
CC(=O)C1=C(C)NC(SCC(=O)c2ccc(Cl)cc2Cl)=C(C#N)C1c1ccco1 (stereo not drawn),"inconclusive [inhibitor, full curve, poor fit]",–
CCc1ccc(Nc2n[n+](-c3ccccc3)c(-c3cccc(Cl)c3Cl)s2)cc1,"inconclusive [inhibitor, single point]",–
COC(=O)c1ccc(NC(=O)NC(=O)Oc2ccccc2)cc1,"inconclusive [inhibitor, full curve, poor fit]",–
O=c1[nH]c(=O)n(-c2cccc3ccccc23)c(O)c1C=NCc1ccc2c(c1)OCO2,"inconclusive [inhibitor, full curve, poor fit]",–
CCCCn1c(N)c(N(CCOC)C(=O)c2ccco2)c(=O)[nH]c1=O,"inconclusive [inhibitor, single point]",–
OC(COc1ccc2cc(Br)ccc2c1)Cn1ccnc1 (stereo not drawn),"inconclusive [inhibitor, single point]",–
COc1ccnc(CSC(N)=Nc2cccc(C(F)(F)F)c2)c1,"inconclusive [inhibitor, partial curve]",–
CCn1c(SCc2nc3ccccc3s2)nnc1-c1cccs1,"inconclusive [inhibitor, full curve, poor fit]",–
CCOC(=O)c1c(C)[nH]c(C(=O)CN2C(=O)NC(C)(C)C2=O)c1C,"inconclusive [inhibitor, full curve, poor fit]",–
Cc1c(N(C)C(=O)c2ccco2)c(=O)n(-c2ccccc2)n1C,"inconclusive [inhibitor, full curve]",–
O=C1c2ccccc2C(=O)c2[nH]cnc21,–,inactive: -6.01%
CC1CCN(CC(=O)Nc2ccccc2-c2ccccc2)CC1,"inconclusive [inhibitor, full curve, poor fit]",–

Compound,Potency,"activity change, negative = inhibition"
O=C(O)CSc1nnc(-c2ccccc2)o1,"inconclusive [inhibitor, full curve, poor fit]",–
CCc1ccc(OCCCSc2nc(-c3ccc(C(C)(C)C)cc3)nc3cc(=O)[nH]n23)cc1,"inconclusive [inhibitor, single point]",–
CSc1ccc(/C=N/N2CCN(c3ccccc3)CC2)cc1,"inconclusive [inhibitor, full curve]",–
O=S1(=O)CCN(Cc2ccccc2C(F)(F)F)CC1,"inconclusive [inhibitor, full curve, poor fit]",–
Cc1nc(CCNS(=O)(=O)c2cccnc2)cs1,–,inactive: 2.91%
CCOC(=O)c1ccccc1NC(=O)N1CCn2c(C)ccc2C1CC (stereo not drawn),–,inactive: -1.54%
COc1ccc(NC(=S)N2CCN(c3ccccn3)CC2)cc1,"inconclusive [inhibitor, partial curve]",–
CC(CN1CCC(n2nccc2NC(=O)C2CCCC2)CC1)c1ccccc1 (stereo not drawn),"inconclusive [inhibitor, partial curve, poor fit]",–
COC(=O)C1=CNC=C(C(=O)OC)C1c1ccc(C(=O)OC)cc1,"inconclusive [inhibitor, partial curve, poor fit]",–
COc1cc(C(=O)NC2CCCNC2)cc(OC)c1OC (stereo not drawn),–,inactive: -1.68%
Cn1nnnc1SCCNCc1ccccc1OCc1ccccc1F,–,inactive: -3.58%
CCn1c(CCC(=O)N(C)CC(=O)Nc2cccc(F)c2)nc2cc(S(=O)(=O)N(C)C)ccc21,"inconclusive [inhibitor, partial curve, poor fit]",–
CN(C(=O)CSc1nc(-c2ccccc2)cs1)C1CCS(=O)(=O)C1 (stereo not drawn),–,inactive: -13.5%
CC(OC(=O)CCCSc1nc2ccccc2s1)C(=O)NC(N)=O (stereo not drawn),"inconclusive [inhibitor, full curve, poor fit]",–
COC(=O)C1C(c2ccccc2)C(C(=O)OCc2ccco2)C1c1ccccc1 (stereo not drawn),"inconclusive [inhibitor, single point]",–
O=C(NCCn1cc(SCc2ccc(F)cc2)c2ccccc21)c1c(F)cccc1F,"inconclusive [inhibitor, full curve, poor fit]",–
CC(C)c1nc(SCc2ccccn2)c2c(=O)n(C)c(=O)n(C)c2n1,"inconclusive [inhibitor, partial curve]",–
Nc1ncnc2c1ncn2C1O[C@H](CO)[C@@H](O)[C@@H]1O (stereo partly drawn),"inconclusive [inhibitor, full curve]",–
CCc1cc(C)cc(OCCNC(=O)c2cncc(Br)c2)c1,"inconclusive [inhibitor, partial curve]",–
CCCC[C@]12Cc3ccccc3C(O1)c1c(c3ccccc3oc1=O)O2,"inconclusive [inhibitor, full curve, poor fit]",–
CN1CCC(N(C)S(=O)(=O)c2ccc(NC(=O)COc3ccc([N+](=O)[O-])cc3)cc2)CC1,"inconclusive [inhibitor, full curve, poor fit]",–
